Source: the supplement of paper PMC7125110
± gives the standard error. This sample is rich in variants without activity.

B1: glmS ribozyme (parent)
chain: AUAAAAGCGCCAGAACUACAGAAAUGUAGUUGACGAGGAGGAGGUUUAUCGAAUUUUCGGCGGAUGCCUCCAAA

Columns and labels:
Conditions in all cases: with glucosamine-6-phosphate
glucosamine-6-phosphate [1] = variants of: B1; experiment: self-cleavage kobs at 40 uM GlcN6P; higher = faster cleavage; RNA array
Summary of the method: (§1)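 On sequenced MiSeq chips, barcoded ribozyme variants were made in situ by E. coli RNA polymerase and followed at 37 °C through a hybridised Cy3 probe. Glucosamine-6-phosphate was flowed in at 40 μM to 10 mM in HEPES/KCl/Mg(OAc)2 buffer. Exponential fits to normalised per-tile medians gave kobs, and weighted Michaelis–Menten fits gave kcat and KM.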

glucosamine-6-phosphate [2] = variants of: B1; experiment: self-cleavage kobs at 640 uM GlcN6P; higher = faster cleavage; RNA array
Summary of the method: as §1

glucosamine-6-phosphate [3] = variants of: B1; experiment: self-cleavage kobs at 2500 uM GlcN6P; higher = faster cleavage; RNA array
Summary of the method: as §1

glucosamine-6-phosphate [4] = variants of: B1; experiment: self-cleavage kobs at 10000 uM GlcN6P; higher = faster cleavage; RNA array
Summary of the method: as §1

glucosamine-6-phosphate [5] = variants of: B1; experiment: self-cleavage kobs at 160 uM GlcN6P; higher = faster cleavage; RNA array
Summary of the method: as §1

Row | Variant | self-cleavage kobs at 40 uM GlcN6P (glucosamine-6-phosphate [1]) [s⁻¹] | self-cleavage kobs at 640 uM GlcN6P (glucosamine-6-phosphate [2]) [s⁻¹] | self-cleavage kobs at 2500 uM GlcN6P (glucosamine-6-phosphate [3]) [s⁻¹] | self-cleavage kobs at 10000 uM GlcN6P (glucosamine-6-phosphate [4]) [s⁻¹] | self-cleavage kobs at 160 uM GlcN6P (glucosamine-6-phosphate [5]) [s⁻¹]
1 | A39C C61A C71U | < 1e-05 | < 1e-05 | < 1e-05 | < 1e-05 | 
2 | G38A G41U G63U | < 1e-05 | < 1e-05 | < 1e-05 |  | < 1e-05
3 | G41C | 1.75e-05 ± 1.7e-06 |  |  |  | 
4 | G38C A52U | < 1e-05 | < 1e-05 |  | < 1e-05 | 
5 | A39G A53C G60C | < 1e-05 |  |  | < 1e-05 | 
6 | G40A C68G C71A | < 1e-05 |  | < 1e-05 |  | 
7 | G38U U55C G59C | < 1e-05 | < 1e-05 |  |  | 
8 | G38C A53G | < 1e-05 |  |  |  | < 1e-05
9 | A39G C50U U57A | < 1e-05 | < 1e-05 | < 1e-05 | < 1e-05 | 
10 | G38A U45C A52G | < 1e-05 |  |  |  | 
11 | G41A G43U G62C | < 1e-05 |  |  |  | 
12 | G40U U56A | 6.75e-05 ± 1.3e-05 | 0.000381 ± 4.4e-05 | 0.00116 ± 0.00022 | 0.00344 ± 0.00064 | 0.000124 ± 3.2e-05
13 | A39C U55C C70G | < 1e-05 |  |  | < 1e-05 | < 1e-05
14 | G40C C58G C67U | < 1e-05 |  |  |  | 
15 | G38A U46A | < 1e-05 | < 1e-05 | < 1e-05 | < 1e-05 | < 1e-05
16 | G38U A52C A53G U54G | < 1e-05 |  |  |  | 
17 | G38U G66A U69G | 4.77e-05 ± 2e-05 |  |  |  | 
18 | A39C G40C C61G | < 1e-05 |  |  | < 1e-05 | 
19 | G40A A48C U57A C61G | < 1e-05 |  | < 1e-05 |  | 
20 | A39U A52U C68G | < 1e-05 |  |  |  | 
21 | G41A C61A | < 1e-05 | < 1e-05 | < 1e-05 | < 1e-05 | < 1e-05
22 | G38C G41C G43U | < 1e-05 | < 1e-05 | < 1e-05 | < 1e-05 | < 1e-05
23 | A39U G43U | 1.76e-05 ± 8.1e-06 | 0.000127 ± 1.3e-05 | 0.000418 ± 4.9e-05 | 0.00046 ± 4.6e-05 | 5.96e-05 ± 8.5e-06
24 | G40C U56A G62C | < 1e-05 |  |  |  | 
25 | G40U U57G | < 1e-05 |  |  |  | 
